Potency data for 89 compounds are collected here from PubChem BioAssay AID360 (National Center for Advancing Translational Sciences (NCATS), 2006).

Hit rate of the full screen: of about 48,000 compounds, about 550 (1.1%) were called active. Roughly 4% stayed inconclusive and do not appear here. Cut-off read from the data, not from the text of the source: active = potency below about 15 µM; inconclusive = mostly about 16 µM to 33 µM; inactive = weaker than that. Some of the results follow.
Potency is the fitted concentration of half-maximal effect.

The experiment has as its target Lysosomal acid glucosylceramidase (Homo sapiens) (UniProt P04062). Put plainly: Glucocerebrosidase.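 Note: the screen sought inhibitors.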 To be noted: purified enzyme, resorufin glucoside fluorescence (screen aimed at inhibitors), 20 min; series mostly up to 77 µM. A digest of the protocol: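 Compounds titrated against 0.2 nM normal enzyme, 30 uM resorufin beta-D-glucopyranoside substrate, citrate/phosphate buffer with taurocholate and tween-20, pH 5.9. Reaction ran 20 min at room temperature; fluorescence (Ex 548/Em 600) gave AC50.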
Chain of UniProt P04062 (P04062 whole entry, looked up): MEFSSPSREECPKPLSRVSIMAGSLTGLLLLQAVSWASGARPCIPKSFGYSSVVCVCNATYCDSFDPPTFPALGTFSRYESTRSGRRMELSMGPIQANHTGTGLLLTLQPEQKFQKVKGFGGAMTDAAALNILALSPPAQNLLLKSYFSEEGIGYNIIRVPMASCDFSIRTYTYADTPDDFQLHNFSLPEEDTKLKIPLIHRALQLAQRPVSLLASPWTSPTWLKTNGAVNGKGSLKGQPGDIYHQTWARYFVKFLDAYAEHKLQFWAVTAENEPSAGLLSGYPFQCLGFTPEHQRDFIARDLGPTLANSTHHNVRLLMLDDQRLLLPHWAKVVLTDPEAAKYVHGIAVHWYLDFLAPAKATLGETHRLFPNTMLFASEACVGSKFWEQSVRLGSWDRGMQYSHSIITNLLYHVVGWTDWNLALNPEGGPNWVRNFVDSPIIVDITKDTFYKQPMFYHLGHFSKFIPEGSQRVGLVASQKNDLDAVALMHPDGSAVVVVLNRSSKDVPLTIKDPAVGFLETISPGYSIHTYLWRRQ
Turning to `N=C1C(c2nc(-c3ccc(F)cc3)cs2)=C(O)CN1CCCN1CCOCC1`, the Potency was inactive: > 76.9 µM.

Consider `CC(C)(O)C#Cc1ccc(C(=O)N2CCC(C(N)=O)(N3CCCCC3)CC2)cc1`, for which the Potency is inactive: > 76.9 µM.

As to `CCOC(=O)c1c(NC(=O)CSc2nc3cccnc3n2C)sc(C(C)=O)c1C`, the Potency is inactive: > 76.9 µM.

On to `COc1cc2cc(CN(CCO)S(=O)(=O)c3ccccc3Cl)c(=O)[nH]c2cc1OC`, for which the Potency is inactive: > 76.9 µM.

For the compound `CN(C1CCCCC1)S(=O)(=O)c1ccc(C(=O)O)cc1`, the Potency was inactive: > 76.9 µM.

Consider `O=C(OCCCCN1C(=O)c2ccccc2C1=O)c1ccc(Br)o1`, for which the Potency was inactive: > 76.9 µM.

Turning to `COc1ccc(-c2nc(N)nc(C)c2Oc2ccccc2Br)c(O)c1`, the Potency is inactive: > 76.9 µM.

Regarding `O=C(CS(=O)(=O)c1ccccc1)Nc1nc(-c2ccccc2)cs1`, the Potency was inactive: > 76.9 µM.

In the case of `COc1ccccc1NC(=O)CC1C(=O)NCCN1C(=O)Nc1ccc(Cl)c(Cl)c1` (centres undefined), the Potency is inactive: > 76.9 µM.

On to `O=C1C(Cl)=C(N2CCOCC2)C(=O)N1CCc1ccccc1`, for which the Potency is inactive: > 76.9 µM.

For `N#CC(C(=O)NCc1ccccc1)c1nc2ccccc2nc1N1CCCC1` (centres undefined), the Potency is inactive: > 76.9 µM.

With `CCNC(=O)C1CC(=O)N(c2ccc(Br)cc2)C1` (centres undefined), the Potency was inactive: > 76.9 µM.

As for `COc1ccc(Cn2c(=O)[nH]c3cc(C(=O)NCCCN4CCCC4=O)ccc3c2=O)cc1`, the Potency is inactive: > 76.9 µM.

As to `Cc1ccc(C)c(NC(=O)Cn2nnc(C(=O)Nc3c(C)cccc3C)c2N)c1`, the Potency is inactive: > 76.9 µM.

Regarding `O=C(CN1CCC(NC(=O)c2ccc(F)cc2)CC1)NCc1ccccc1F`, the Potency is inactive: > 76.9 µM.

On to `COC(=O)C1Cc2c([nH]c3ccccc23)C(C)N1` (centres undefined), for which the Potency is inactive: > 76.9 µM.

Take `COc1ccccc1Nc1nc2ccccc2[nH]1`: the Potency is inactive: > 76.9 µM.

`CCOc1ccc(NC(=O)Nc2ccc(N(C)C(C)=O)cc2)cc1`: the Potency was inactive: > 76.9 µM.

Turning to `COc1ccc(N=C(N(C)C)P(=O)(N(C)C)N(C)C)cc1`, the Potency is inactive: > 76.9 µM.

Turning to `O=C(CCn1c(=O)oc2ccccc21)N1CCOCC1`, the Potency is inactive: > 76.9 µM.

On to `CCN(CC(=O)NC1CCCCCC1)S(=O)(=O)c1ccccc1`, for which the Potency was inactive: > 76.9 µM.

With `CCCOc1ccc(N2CC(C(=O)Nc3ccccn3)CC2=O)cc1` (centres undefined), the Potency is inactive: > 76.9 µM.

As to `COc1ccc(-n2c(N)c(C(=O)NCC3CCCO3)sc2=S)cc1` (centres undefined), the Potency was inactive: > 76.9 µM.

Consider `O=C(COC(=O)c1ccco1)NCc1cccs1`, for which the Potency is inactive: > 76.9 µM.

Turning to `C=CCn1c(Br)nc2c1c(=O)n(C)c(=O)n2C`, the Potency is inactive: > 76.9 µM.

On to `COc1ccc(-c2nc(-c3ccccc3OC)no2)cc1OC`, for which the Potency is inactive: > 76.9 µM.

With `CCOC(=O)c1c(-c2ccccc2)csc1NC(=O)CSc1nnnn1C`, the Potency is inactive: > 76.9 µM.

On to `CCN(CC)S(=O)(=O)c1ccc(C(=O)OCC(=O)N2CCN(C(=O)c3ccco3)CC2)cc1`, for which the Potency was inactive: > 76.9 µM.

`CCOC(=O)N1CCN(S(=O)(=O)c2ccc(C)c(C)c2)CC1`: the Potency was inactive: > 76.9 µM.

In the case of `CC12CC(NC(=O)N1Cc1ccccc1)c1ccccc1O2` (centres undefined), the Potency is inactive: > 76.9 µM.

Consider `Cc1nnc(N(Cc2ccco2)C(=O)c2ccno2)s1`, for which the Potency is inactive: > 76.9 µM.

For the compound `COc1cccc(N(CC(=O)O)S(=O)(=O)c2ccccc2)c1`, the Potency is inactive: > 76.9 µM.

Turning to `COC(=O)c1ccc(/C(O)=C(\C#N)c2nc3ccccc3s2)cc1`, the Potency was inactive: > 76.9 µM.

For `Cc1cc(C)cc(OCC(=O)N2CCCCCC2)c1`, the Potency is inactive: > 76.9 µM.

Turning to `Cc1[nH]nc(N=Cc2c(O)n(C)c(=O)n(C)c2=O)c1-c1ccccc1`, the Potency was inactive: > 76.9 µM.

Take `Brc1ccccc1-c1nnc(CSc2nnc3sc4ccccc4n23)o1`: the Potency was inactive: > 76.9 µM.

`CCOC(=O)c1cccc(NC(=O)CCNS(=O)(=O)c2ccc3c(c2)CCN3C(=O)CC)c1`: the Potency is inactive: > 76.9 µM.

On to `O=C(c1cc2ccccc2oc1=O)N(Cc1cccs1)C1CCS(=O)(=O)C1` (centres undefined), for which the Potency is inactive: > 76.9 µM.

For the compound `Cc1ccc(C)c(Cn2nnc3c(=O)[nH]c(C4CCN(C(=O)c5cccs5)CC4)nc32)c1`, the Potency entry is “inactive”.

As to `CCC(OC(=O)c1ccco1)C(=O)NCc1ccc(C)cc1` (centres undefined), the Potency was inactive: > 76.9 µM.

Turning to `CCCCn1c(SCC(=O)Nc2ccc3c(c2)OCO3)nc2c1c(=O)n(C)c(=O)n2C`, the Potency was inactive: > 76.9 µM.

For the compound `O=C(CCS(=O)(=O)Cc1ccccc1)NCc1ccco1`, the Potency was inactive: > 76.9 µM.

With `COCCNC(=O)CN(C(=O)CCC(=O)Nc1cc(C)on1)c1ccc(C)cc1C`, the Potency was inactive: > 76.9 µM.

In the case of `CCOC(=O)n1ccc(C(=O)Nc2ccccc2F)n1`, the Potency was inactive: > 76.9 µM.

On to `COc1cccc(NC(=O)C(C#N)Cc2ccncc2)c1` (centres undefined), for which the Potency was inactive: > 76.9 µM.

On to `Cc1ccc(S(=O)(=O)Nc2ccc(C(=O)Nc3cc(C)on3)cc2)cc1`, for which the Potency was active: 0.155 µM.

Consider `CCCS(=O)(=O)N1CCCC(C(=O)NC(C)c2ccc3c(c2)OCCO3)C1` (centres undefined), for which the Potency was inactive: > 76.9 µM.

For the compound `CCN(CC)S(=O)(=O)c1cc(C(=O)Nc2nncs2)c(Cl)cc1Cl`, the Potency is inactive: > 76.9 µM.

As to `O=C(NCc1ccco1)c1cc(-c2ccc(Cl)cc2)on1`, the Potency is inactive: > 76.9 µM.

Regarding `CN(C)c1ccc(C(=S)NCc2ccco2)cc1`, the Potency is inactive: > 76.9 µM.

In the case of `COCCNC(=O)c1c[nH]c2ccc(S(=O)(=O)N3CCC4(CC3)OCCO4)cc2c1=O`, the Potency is inactive: > 76.9 µM.

As for `O=C1C2C3C=CC(C3)C2C(=O)N1CCCCN1C(=O)C2C3C=CC(C3)C2C1=O` (centres undefined), the Potency was inactive: > 76.9 µM.

Take `COc1ccc(S(=O)(=O)NCCCCCC(=O)NCCCN2CCOCC2)cc1`: the Potency was inactive: > 76.9 µM.

In the case of `O=C1CN(c2ccccc2Cl)C(=O)CN1c1ccccc1Cl`, the Potency is inactive: > 76.9 µM.

Take `Cc1cc(C)nc(N2CCCC(C(=O)NCCc3ccc(F)cc3)C2)n1` (centres undefined): the Potency was inactive: > 76.9 µM.

Regarding `CCc1nnc(NC(=O)c2ccc(S(=O)(=O)N3CCCCCC3)cc2)s1`, the Potency was active: 1.43 µM.

`Cc1ccc(S(=O)(=O)N2CCN(C(=O)CCC(=O)OCC(=O)Nc3cccc(C#N)c3)CC2)cc1`: the Potency was inactive: > 76.9 µM.

With `O=C(O)CCS(=O)(=O)Cc1ccccc1F`, the Potency is inactive: > 76.9 µM.

Regarding `CN(C)C(CNC(=O)Nc1cccc(Cl)c1)c1cccnc1` (centres undefined), the Potency is inactive: > 76.9 µM.

In the case of `COc1ccc(-c2cc3nc4c(c(=O)n3[nH]2)CCC4)cc1`, the Potency was inactive: > 76.9 µM.

Consider `CCCCN(C)CCCNC(=O)CCn1nc(-c2ccccc2)ccc1=O`, for which the Potency is inactive: > 76.9 µM.

On to `CC(C)Sc1nc(N)c2c3c(sc2n1)CN(C)CC3`, for which the Potency is inactive: > 76.9 µM.

For the compound `O=C(Cn1cnc2c(oc3ccccc32)c1=O)N1CCN(c2ccccc2)CC1`, the Potency is inactive: > 76.9 µM.

With `CCn1ncc(NC(=O)Nc2cccc(C(F)(F)F)c2)c1C(N)=O`, the Potency was inactive: > 76.9 µM.

As to `CN(Cc1ccccc1)C(=O)c1ccccc1NC(=O)c1ccco1`, the Potency was inactive: > 76.9 µM.

Take `O=C(Cn1cnc2ccccc21)NCc1ccccc1`: the Potency is inactive: > 76.9 µM.

For the compound `COC(=O)c1ccccc1NC(=O)Cn1c(=O)oc2ccc(Cl)cc21`, the Potency is inactive: > 76.9 µM.

Take `Cn1c(=O)cc(OCCCC(=O)NCc2ccco2)c2ccccc21`: the Potency was inactive: > 76.9 µM.

`COc1cccc(CNC(=O)CCCNS(=O)(=O)c2cccs2)c1`: the Potency is inactive: > 76.9 µM.

For the compound `COc1ccc2cc(CN(CCc3ccccc3)Cc3nnnn3CC3CCCO3)c(=O)[nH]c2c1` (centres undefined), the Potency is inactive: > 76.9 µM.

With `CNC(=O)NCC12CC3CC(CC(C3)C1)C2`, the Potency is inactive: > 76.9 µM.

For `CN=C1SC(CC(=O)Nc2ccc(N3CCOCC3)cc2)C(=O)N1C` (centres undefined), the Potency is inactive: > 76.9 µM.

Consider `Cc1ccc(-c2nn3c(C)nnc3s2)cc1NC(=O)CSc1ccc(Cl)cc1`, for which the Potency is inactive: > 76.9 µM.

Regarding `CC(C)(C)NC(=O)COC(=O)c1ccc(S(=O)(=O)N2CCCCCC2)cc1`, the Potency was inactive: > 76.9 µM.

With `O=C(Nc1nc2ccc(S(=O)(=O)N3CCCCC3)cc2s1)C1CCCO1` (centres undefined), the Potency is inactive: > 76.9 µM.

On to `CS(=O)(=O)N(CC(=O)N1CCN(c2ccccc2)CC1)C1CCCCC1`, for which the Potency was inactive: > 76.9 µM.

In the case of `Cc1ccc2c(c1)N(C(C)C(=O)NCCc1ccccc1)C(=O)CO2` (centres undefined), the Potency was inactive: > 76.9 µM.

As to `Cc1ccccc1-c1nnn(CC(=O)c2ccc(S(=O)(=O)N3CCCC3)cc2)n1`, the Potency is inactive: > 76.9 µM.

Turning to `COCCNC(=O)CN1CCN(C(c2ccccc2)c2ccccc2)CC1`, the Potency is inactive: > 76.9 µM.

Consider `c1ccc(OCCCn2nnc(-c3ccc(N4CCOCC4)cc3)n2)cc1`, for which the Potency was inactive: > 76.9 µM.

Regarding `O=C(Nc1ccccc1-c1ccccc1)C1CCCN(c2ncccn2)C1` (centres undefined), the Potency is inactive: > 76.9 µM.

Take `COc1ccc2nc(N3CCCC(C(=O)NCCCN4CCN(C)CC4)C3)sc2c1` (centres undefined): the Potency is inactive: > 76.9 µM.

Regarding `CCOc1ccc(OCC)c(NS(=O)(=O)c2ccc3c(c2)n(C)c(=O)c(=O)n3C)c1`, the Potency was inactive: > 76.9 µM.

Regarding `CCOC(=O)C1=C(C)NC2=C(C(=O)CCC2)C1c1ccsc1` (centres undefined), the Potency is inactive: > 76.9 µM.

Take `Cc1ccc(S(=O)(=O)N2c3ccc(S(N)(=O)=O)cc3CC2C)cc1` (centres undefined): the Potency is inactive: > 76.9 µM.

Regarding `COc1ccc(OC)c(-n2nnnc2SCC(=O)Nc2nc(C)c(C)s2)c1`, the Potency entry was “inactive”.

For the compound `COC(=O)C1CCN(C(=O)COc2cc3sc(C)nc3c3sccc23)CC1`, the Potency is inactive: > 76.9 µM.

Consider `COc1ccccc1NC(=O)CSc1nnc(C)n1CCc1ccccc1`, for which the Potency was inactive: > 76.9 µM.

On to `O=C(NCCCNCCCNC(=O)c1ccccn1)c1ccccn1`, for which the Potency was inactive: > 76.9 µM.
